Source: the supplement of paper PMC10338343
± gives the standard deviation. Only a part is listed here, and it is no random draw.

System: MIWI (PIWIL1) piRISC loaded with L1MC piRNA (30 nt)
Experiment: pre-steady-state target cleavage rate (min^-1); MIWI and MILI are mouse PIWI proteins and EfPiwi is from a freshwater sponge; tags in brackets are library labels; higher = faster piRNA-guided slicing of the target
Details: guide: L1MC piRNA 5'p-UAACUAAAUACUAUGCAAGCUGUAGGUCCU; auxiliary factor: 500 nM mouse GTSF1
In short: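 Using HEPES–potassium acetate buffer at 33 °C, 1 nM active affinity-purified piRISC with a single synthetic guide was mixed with 0.1 nM transcribed, DNA-blocked target RNA library for 0–8 or 0–960 min, with or without 500 nM GTSF1 partner protein. Uncleaved targets were sequenced and normalised to depth and to weakly complementary targets, and three trials were pooled with k3 capped at 0.0001 min^-1. A burst-and-steady-state fit gave the pre-steady-state cleavage rate.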

Sequence | pre-steady-state target cleavage rate
UCCUGGAUGACGAUGCAUAGUAUUUAGUUA | 0.0161 ± 0.0045
UGGACCUACACGAUGCAUAGUAUUUAGAAA | 0.122 ± 0.016
UCCUGGAUCAGCUUCCAUUGUAUUUAGUUA | 0.0154 ± 0.0063
UCGACCUACACGAUGCAUAGUAUUUACAAA | 0.147 ± 0.021
UCCUGGAUGUCGAAGCAUAGUAUUUGAGUUA | 0.0058 ± 0.0038
UCCUGGAUGUCGAACCAUAGUAUUUAGUCA | < 0.0001
UCCACCUACAGCUUGCAUAGUAUUUGUUA | 0.328 ± 0.041
UCCUGGAUGUCGAAGCAUAGUAUUUAGUGA | 0.00593 ± 0.0034
UCCUCCUACAGCUUGCUUAGUAUUUUCAAA | 0.163 ± 0.031
UCCUGCUACAGCUUGCAAAGUAUUUACAAA | 0.192 ± 0.027
AGGACCUACAGCUUGCAUAGGUAUUUAGUUA | 0.178 ± 0.065
UCCACCUACAGCUUGCAUAGUUUUAGUUA | 0.016 ± 0.008
UCCACCUACACGAUGCAUAGUAUUUUCAAA | 0.117 ± 0.018
AGGACCUACAGCUUCGUUAGUAUUUAGUAA | 0.06 ± 0.012
UCGACCUACAGCUUGCAUAGUUAAUAGUAA | 0.0939 ± 0.021
UCCACCUACAGCUUGCAUAGAUAUUAGUUA | 0.0481 ± 0.015
UCCUGGAUCAGCUUCGAUAGUAUUUAGUUA | 0.0375 ± 0.008
UCCUCCUUGUGCUUGCAUAGUAUUUACAAA | 0.0913 ± 0.018
UCGACCUACAGCUUGCAUAGUAUAAAGUAA | 0.318 ± 0.036
UCCUGGAUGAGCUUGCAUAGUAUUUAUUA | 0.0943 ± 0.023

Sequence | pre-steady-state target cleavage rate
UCCUGGAUCAGCUUGCAAAGUAUUUUCAAA | 0.0494 ± 0.013
UCCUCCUAGUCCUUGCAUAGUAUUUACAAA | 0.115 ± 0.026
UCCUGGAUGUCGAUGCAUAGUAUUUAGUUG [g2:g17:cont:t1G] | 0.00361 ± 0.003
UCCUGGUACAGCUUGCAUAGUAAUUUCAAA | 0.0503 ± 0.021
UCCUGGAACAGCUUGCAUUCAAUUUAGUUA | 0.00455 ± 0.0044
UCCUCCUACAGCUACGAUAGUAUUUAGUUA | 0.108 ± 0.017
UCCUGGUACAGCUUGCAUACAAUUUAGUUA | 0.0125 ± 0.0058
UGGACCUACAGCUUCCAUAGUAUUAAGUUA | 0.00435 ± 0.0038
UCCUGGAUGUCCUUGCAUACUAUUUACUUA | 0.00506 ± 0.0037
UCCUGGAUGAGCUACCAUAGUAUUUAGUUA | 0.0107 ± 0.0041
AGGACCUACAGCUUGCAUAGUAUUAUCUAA | 0.404 ± 0.066
UCCUGCUACAGCUUGCAUAGAUUUUAGAAA | 0.00439 ± 0.0033
UCGACCUACAGCAACCAUAGUAUUUAGUAA | 0.13 ± 0.028
UCCUGGAACAGGUUGCAUAGUAUUUAGAAA | 0.362 ± 0.043
UCCUGCUACAGCUUGCAUACUAUUUACAAA | 0.21 ± 0.043
UCCUGGAACAGCUUCCAUAGUAUUUAGAAA | 0.00998 ± 0.0048
UCCUGCUAGUGCUUGCAUAGUAUUUACAAA | 0.0777 ± 0.02
UCCUGGAUCAGCUAGCAUAGUAUUUUCAAA | 0.0506 ± 0.015
UCCUGGUACAGCUUGCAUUGUAUUUACAAA | 0.0263 ± 0.0094
UGGACCUACACGAUGCAUAGUAUUUACAAA | 0.0726 ± 0.012
